{
  "source": "paper PMC8869358",
  "about": "“High-Throughput Chemical Screening and Structure-Based Models to Predict hERG Inhibition” (Biology, 2022)",
  "note": "Where a name gives a salt, the structure may show the parent alone.",
  "data": [
    {"target": "T1, hERG (Homo sapiens, UniProt Q12809)", "T1 sequence (Q12809 whole entry)": "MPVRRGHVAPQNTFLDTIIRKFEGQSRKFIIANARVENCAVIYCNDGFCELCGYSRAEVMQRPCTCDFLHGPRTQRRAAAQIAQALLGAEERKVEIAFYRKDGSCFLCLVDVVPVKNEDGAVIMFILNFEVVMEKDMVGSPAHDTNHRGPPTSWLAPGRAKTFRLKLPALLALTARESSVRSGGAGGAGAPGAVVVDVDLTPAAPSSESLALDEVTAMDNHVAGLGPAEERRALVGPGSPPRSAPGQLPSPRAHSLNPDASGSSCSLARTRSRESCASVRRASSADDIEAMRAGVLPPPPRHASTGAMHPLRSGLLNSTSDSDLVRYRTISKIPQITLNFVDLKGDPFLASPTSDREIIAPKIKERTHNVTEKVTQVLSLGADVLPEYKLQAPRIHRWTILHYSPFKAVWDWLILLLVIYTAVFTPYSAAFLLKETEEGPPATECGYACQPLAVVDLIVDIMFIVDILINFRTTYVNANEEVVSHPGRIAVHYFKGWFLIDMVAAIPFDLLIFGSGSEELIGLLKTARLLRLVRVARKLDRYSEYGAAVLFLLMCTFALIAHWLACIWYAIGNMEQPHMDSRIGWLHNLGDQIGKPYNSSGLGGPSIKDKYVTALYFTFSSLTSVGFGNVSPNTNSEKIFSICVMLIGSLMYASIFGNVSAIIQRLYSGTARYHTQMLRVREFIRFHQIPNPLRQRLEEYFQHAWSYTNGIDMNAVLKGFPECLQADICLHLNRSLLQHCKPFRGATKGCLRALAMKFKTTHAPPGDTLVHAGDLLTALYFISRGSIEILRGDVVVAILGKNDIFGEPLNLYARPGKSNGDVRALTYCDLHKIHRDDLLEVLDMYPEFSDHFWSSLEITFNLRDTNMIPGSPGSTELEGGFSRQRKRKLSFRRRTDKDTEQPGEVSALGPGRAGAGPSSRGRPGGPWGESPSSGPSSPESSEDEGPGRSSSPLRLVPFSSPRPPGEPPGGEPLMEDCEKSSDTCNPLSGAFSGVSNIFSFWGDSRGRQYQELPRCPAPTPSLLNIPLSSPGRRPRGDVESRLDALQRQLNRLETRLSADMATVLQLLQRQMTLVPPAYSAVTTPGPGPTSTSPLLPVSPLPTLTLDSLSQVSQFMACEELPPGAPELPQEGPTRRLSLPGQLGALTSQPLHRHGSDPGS", "assay": "cell-based", "conditions": "(-LOG10(IC50), µM)", "units": {"IC50": "µM"}, "values": [
      {"smiles": "C(=C\\c1ccccc1)/CN1CCN(C(c2ccccc2)c2ccccc2)CC1", "note": "[Cinnarizine]", "IC50": 0.817},
      {"smiles": "CN(C)CC/C=C1\\c2ccccc2COc2ccccc21", "note": "[Doxepin hydrochloride]", "IC50": 17.9},
      {"smiles": "Cc1ccccc1C(OCCN(C)C)c1ccccc1", "note": "(centres unmarked) [Orphenadrine hydrochloride]", "IC50": 23.6},
      {"smiles": "O=c1n(CCCN2CCN(c3cccc(Cl)c3)CC2)nc2ccccn12", "note": "[Trazodone hydrochloride]", "IC50": 9.52},
      {"smiles": "Cc1ccccc1C(OCCN(C)C)c1ccccc1", "note": "(centres unmarked) [Orphenadrine dihydrogen citrate]", "IC50": 25.5},
      {"smiles": "CN1CCC(=C2c3ccccc3C=Cc3ccccc32)CC1", "note": "[Cyproheptadine]", "IC50": 12},
      {"smiles": "Clc1ccc(CSC(Cn2ccnc2)c2ccc(Cl)cc2Cl)cc1", "note": "(centres unmarked) [Sulconazole nitrate]", "IC50": 7.86},
      {"smiles": "CCCCCCCCCCCCCCCC[n+]1ccccc1", "note": "[Cetylpyridinium bromide]", "IC50": 11},
      {"smiles": "CO[C@]12CC[C@@]3(C[C@@H]1C(C)(O)C(C)(C)C)[C@H]1Cc4ccc(O)c5c4[C@@]3(CCN1CC1CC1)[C@H]2O5", "note": "(some centres unmarked) [Buprenorphine hydrochloride]", "IC50": 24.4},
      {"smiles": "CCN(CC)CCOc1ccc(C(=C(Cl)c2ccccc2)c2ccccc2)cc1", "note": "[Clomiphene]", "IC50": 3.13},
      {"smiles": "CCN(CC)CCOC(=O)C1(C2CCCCC2)CCCCC1", "note": "[Dicyclomine]", "IC50": 8.17},
      {"smiles": "CCCCCCCCCCCCCCCC[n+]1ccccc1", "note": "[Cetylpyridinium chloride]", "IC50": 10.2}
    ]},
    {"target": "T1, hERG", "assay": "not given", "conditions": "not given", "description": "The hERG-U2OS cell line was purchased from Codex BioSolution, Inc. (Gaithersburg, MD, USA). All the cell culture reagents were obtained from Invitrogen (Life Technologies, Madison, WI, USA). The hERG-U2OS cells were cultured in DMEM with Glutamax containing 10% fetal bovine serum (FBS), 1% of Non-Essential AA (NEAA), 50 U/mL penicillin, 50 μg/mL streptomycin, and 1 µg/mL puromycin. The cells were maintained at 37 °C under a humidified atmosphere and 5% CO2.\nA FluxORTM thallium flux assay was performed in hERG-U2OS cells with stable hERG expression, as previously described. In this assay, thallium ions are used as surrogates for K^+ ions to monitor the activity of the hERG K^+ channel. […] The hERG-U2OS cells suspended in culture medium were dispensed at 1000 cells/well/3μL into 1536-well, black wall/clear-bottom plates using a Multidrop Combi dispenser (Thermo Fisher, Waltham, MA, USA). After the assay plates were incubated at 37 °C overnight, 3 μL of Loading Buffer provided from FluxOR II Potassium Ion Channel Assay Kit (Life Technologies, Carlsbad, CA, USA) was added to each assay well. The assay plates were then incubated at room temperature in the dark for 1 h, followed by the addition of 23 nL of compound, dissolved in DMSO, DMSO only, or positive control, to the assay plate. Each compound was tested at 15 concentrations in three independent runs. […]", "values": [
      {"smiles": "CC(C)(C)c1ccc(C(=O)CCCN2CCC(OC(c3ccccc3)c3ccccc3)CC2)cc1", "note": "[Ebastine]", "activity outcome for hERG inhibition in the assay": "showing activity against hERG"},
      {"smiles": "CN1CCC[C@@H]1CCO[C@](C)(c1ccccc1)c1ccc(Cl)cc1", "note": "[Clemastine]", "activity outcome for hERG inhibition in the assay": "showing activity against hERG"}
    ]}
  ]
}
